# Test results reported in ChEMBL document CHEMBL4888484, “Replenishing the malaria drug discovery pipeline: Screening and hit evaluation of the MMV Hit Generation Library 1 (HGL1) against asexual blood stage Plasmodium falciparum ,using a nano luciferase reporter read-out” (2022).
# About 540 (0.36%) of roughly 150,000 compounds showed an effect of 50% or more. The list shows a part of the results.
# Test system: Plasmodium falciparum
# Assay: Primary screen in NF54 nanoGlo assay, in single point, at 2uM, 72h; a lower Z score goes with more inhibition
# Format: functional, Erythrocyte
# Conditions: timepoint 72 hour
Compound,% Inhibition,Z score
COc1cccc(-c2nc3ccccc3n2C)c1OCCn1ccnc1,-2%,0.38
CN(CC(F)(F)F)C(=O)Nc1cc(F)ccc1F,1%,-0.08
CC(=O)N1CCN(C2CN(C(C)c3cccc(F)c3)CC2C)CC1 (stereo not drawn),5%,-0.7
CC1(C)COCCN1CC(=O)Nc1ccccc1Cc1ccccc1,-14%,1.88
CCCCN(C(=O)Cc1n[nH]c(=O)[nH]1)C1CCCC1,-14%,1.32
CC1(C)CN(c2ccc3nnc(C(F)(F)F)n3n2)CCS1(=O)=O,-6%,0.81
O=C1CC[C@@]2(CCCN(C(=O)c3ccc(=O)[nH]c3)C2)CN1CCc1ccccn1,-10%,1.47
CCC1(C)CC(=O)N(Cc2ccc(Cl)cc2)C(=O)C1,4%,-0.61
Cc1noc(C(=O)N2CCC(c3ccccc3)(N3CCCC3)CC2)n1,9%,-1.08
N#CC1(COC(=O)c2cc(F)cc(F)c2)CCOCC1,5%,-0.81
CCNc1ncc(C(=O)N2C[C@@H]3CC[C@H]2CN(Cc2[nH]cnc2C)C3)cn1,-4%,0.57
Cn1cccc1-c1noc(CNC(=O)c2ccc[n+]([O-])c2)n1,-8%,1.46
CCc1ccccc1CC(=O)NC[C@H](O)C1CC1,4%,-0.53
Cc1cccc(C(=O)N2CCc3onc(-c4cccc5ccccc45)c3C2)c1O,2%,-0.18
Cc1ccc(CCN(CC2CCCO2)C(=O)[C@@H]2CCCN2C(N)=O)cc1 (stereo partly drawn),-6%,0.64
Cc1nc(CC(=O)N2CCN(c3nc[nH]n3)CC2)c(C)s1,-2%,0.31
CC1(C)Cc2ccccc2-c2nc(-c3ccccc3)n(CCO)c(=O)c21,-18%,3.46
O=C(c1ccsc1)N1CCN(CC(=O)N2CCc3sccc3[C@H]2c2ccccc2)CC1,7%,-1.5
O=C(CCC(F)(F)F)N1CCC(N2CCCCCC2)CC1,-10%,1.36
CCCOC(=O)N1CCC[C@H](c2ncc(Br)cn2)C1,-24%,2.56
CO[C@H]1C[C@H](C(=O)Nc2ncc(Cc3ccccc3)s2)N(C(=O)OC(C)(C)C)C1,4%,-0.51

Compound,% Inhibition,Z score
CC(=O)N(CCN1CCCCC1)[C@H]1CCCN(S(=O)(=O)c2cc(F)ccc2C)C1,-5%,0.62
Cc1nc(CC(=O)N2CC(=O)Nc3cccnc32)cs1,-5%,0.67
O=C(O)[C@@H]1CN(C(=O)Cn2ccc(C(F)(F)F)n2)C[C@@H]1c1ccccc1,3%,-0.38
CC1CN2C(=O)CN(C(=O)Nc3cc(F)cc4c3OCOC4)CC2c2ccccc21 (stereo not drawn),-10%,1.72
Cc1sc(NC(=O)C2(F)C(F)(F)C(F)(F)C(F)(F)C(F)(F)C2(F)F)nc1-c1ccccc1,-7%,0.76
CC[C@H](NCCS(=O)(=O)NC)C(=O)NC1CCCCC1,-6%,0.79
CCn1cc(-c2cc(C(F)(F)F)n(CCC#N)n2)cn1,-29%,3.41
COCCN(C)c1ccc(CNCC2(c3ccc(F)cc3)CC2)cn1,-3%,0.38
CC(=O)N[C@H](c1nc(CC(N)=O)nn1-c1cccnc1)C(C)C,9%,-1.09
CC(C)c1cc(NC(=O)N(C)Cc2cscn2)no1,-11%,1.11
CN(C)S(=O)(=O)N1C[C@@H]2OC(=O)N(CCc3ccc(F)cc3)[C@@H]2C1,3%,-0.51
O=C(c1ccco1)N1CCN(C(=O)[C@@H]2CCCO2)CC1,-7%,1.29
O=C1C[C@H](CN2CCOc3ccc(CO)cc3C2)CN1c1ccccc1,-9%,1.66
Cc1cn2nc(C(=O)NCc3cccnc3)cc2c(=O)[nH]1,-17%,2.21
Cc1noc(C)c1CNc1ccccc1C(=O)NC1CC1,-4%,0.6
CCN1CCC(CC(=O)N[C@H](c2cccnc2)C(F)(F)F)CC1,-3%,0.56
CNC(=O)c1nnsc1Nc1ccccc1C,-46%,5.35
CCC(=O)Nc1ccccc1-c1nc2ccccc2n(CC(=O)Nc2cccc(C)c2C)c1=O,-3%,0.51
O=C(COc1ccc(Br)cc1F)N[C@@H](C(=O)O)c1ccc(F)c(F)c1,-17%,2.1
O=C(NCC1CCN(c2ccccn2)CC1)c1ccccn1,-14%,2.18
Cc1cccc(C(=O)N2CCc3cc(CNC(=O)c4n[nH]c5c4CCc4ccccc4-5)ccc32)c1,0%,-0.05

Compound,% Inhibition,Z score
COc1cc2c(cc1OC)CN(C1CCN(c3ccncn3)CC1)CC2,-1%,0.08
CC(C)CCc1nc(N2CCN(C(=O)c3ccco3)CC2)c2cnn(-c3cccc(Cl)c3)c2n1,-16%,1.61
COc1ccc(CC(=O)N2CCc3[nH]c4ccc(F)cc4c3C2)cc1,6%,-0.8
Cc1ccc2c(Nc3cccc(C#N)c3)c(C(=O)N3CCOCC3)cnc2n1,-11%,1.77
COc1cccc(-c2ccc(N3CCCN(C(=O)CN(Cc4ccc(F)cc4)C(=O)c4ccccc4)CC3)nn2)c1,-16%,1.66
O=C(c1nc2ncccn2n1)N1CCCCC[C@H]1C(F)(F)F,3%,-0.6
COc1ccccc1Nc1nc(N)nc(COC(=O)[C@@H]2CCCO2)n1,-8%,0.92
CC[C@H](C)N(Cc1cccc(OS(=O)(=O)c2c(C)cccc2Cl)c1)C(=O)c1ccccc1Cl,-11%,1.59
Cn1cc(CCc2nc(CC(N)=O)nn2-c2ccccc2)cn1,-6%,0.67
CC(C)(C)S(=O)(=O)c1cnc2c(-c3ccsc3)cnn2c1N,-6%,1.16
CN(CCN1CCOCC1)c1nccc(-c2cnn(C)c2)n1,-9%,1.24
Cc1nc(C(=O)NCCc2nc3ccccc3[nH]2)c(-c2ccccc2)s1,-8%,1
CCOc1cccnc1N1CCN(S(=O)(=O)c2ccoc2)CC1,12%,-1.52
CN(Cc1cccnc1)C(=O)c1cc2c(s1)CCCCC2,-13%,1.12
Cc1c(C(=O)Nc2nc(-c3ccc4c(c3)OCO4)cs2)oc2c1C(=O)CC(C)(C)C2,8%,-1.4
O=C(Nc1ncccc1F)N1CCC[C@H]1c1ccncc1,32%,-3.57
N#C[C@@H]1COCCN1S(=O)(=O)CCc1ccccc1,-2%,0.44
CC1CC(NC(=O)c2nccn2C)C(=O)N1c1ccccc1 (stereo not drawn),-10%,1.27
CC(C)[C@H]1C=CCN1Cc1cnc(N(C)CC(=O)O)nc1,0%,-0.01
O=C(NCc1ccccc1)c1cccc(C(=O)NCc2ccccc2)n1,-16%,2.87
COc1ccc(-c2noc(C3CCN(c4ccc(C)cn4)CC3)n2)cc1OC,-4%,0.58

Compound,% Inhibition,Z score
Cc1cnc(C2CC2)n1[C@H]1CCCN(C(=O)CCc2ccccc2)C1,-10%,1.25
O=C(c1ccc(F)cc1)N1CCC[C@H]1c1nc2ccccc2s1,8%,-0.99
CCC[C@@]1(C)CCCN(c2ncccc2-c2nc(C)no2)C1,-17%,1.56
O=C(COc1ccccc1)Nc1ccc2c(c1)C(=O)N1CCC[C@H]1C(O)=N2,-9%,1.39
CO[C@@]12CC[C@@H](NC(C)=O)C[C@@H]1N(C(=O)CCCCc1ccccc1)CC2,-18%,1.93
CC(C)[C@H](CCO)NS(=O)(=O)c1cc(F)ccc1F,-17%,1.98
COc1ccccc1-c1noc([C@@H](c2cccc(Br)c2)N2CCCC2)n1,-8%,0.73
CC(C)(C)[C@@]1(O)NS(=O)(=O)c2cccc(Cl)c21,-23%,2.76
CCOc1ccccc1-c1cc(C(=O)NCc2ccncc2)c2ccccc2n1,-12%,1.74
CC[C@H](OC1CCCC1)C(=O)Nc1ccc(O)cc1C,-15%,1.95
COc1ccc(-c2nnc3c4ccccc4nc(N4CCCN(C(=O)OCc5ccccc5)CC4)n23)cc1,-4%,0.5
CCCC(=O)N1CCCC1C(=O)OCC1CCN(c2ccccc2)C1 (stereo not drawn),-1%,0.25
FC(F)c1nnc2ccc(N3CCC[C@@H]4CCCC[C@@H]43)nn12,7%,-0.91
CC1Cc2cn[nH]c2C(C(=O)Nc2ccc(CCN(C)C)cc2)C1 (stereo not drawn),-6%,1
CCc1noc(C)c1C(=O)N(C)C1CCN(c2ccccn2)CC1,-18%,3.34
CN1c2cccnc2CN(C(=O)NC2CCCCC2)CC[C@H]1CO,-1%,0.17
CCNC(=O)N(CC(=O)N1CCc2sccc2[C@@H]1COc1ccccc1C)CC1CC1,-3%,0.44
CC1(C)C[C@@H](c2noc(-c3ccc(N4CCCC4=O)cc3)n2)CCO1,-4%,0.69
CCc1cc(N(C)Cc2ncccn2)ncn1,-7%,1.32
NC(=O)c1ccn(-c2ccccc2NC(=O)[C@@H]2CC=CCC2)n1,-9%,2
Clc1ccccc1CN1CCN(c2cncc3nncn23)CC1,-2%,0.31
